Read counts are not given, so values of variants with three or more changes are uncertain.

56 variants from the RNAGym collection of RNA variant scans (doi:10.7554/elife.90254) can be followed below.

To fix the notation:
B1: LINE1-mini (parent)
chain: GGCAGAGCUCAACACAGCGUGGCAAAGUGGCUGUGGCUAGACUGCC

In the series the parent is B1. Kind of series: self-cleavage, relative activity (ratio to wild type); higher = more cleavage; in vitro, sequencing; the parent is a self-cleaving ribozyme.
Turning to CGCAGACCUCAACACAGCUUGGCAAAGUGGCUGUGGCUAGACUGCC [G1C G7C G19U], the self-cleavage was determined as 0.02.

CGCAUAGCUCAACUCAGCGUGGUAAACUGACUGUGGCCAGACUGCC [G1C G5U A14U C23U G27C G30A U38C]: the self-cleavage is 0.03.

On to CACAGAGCUCAACACAACGGGGCAACGUUGCUGUGGCUAGACUGCC [G1C G2A G17A U20G A26C G29U], for which the self-cleavage came to 0.03.

With CGCAGACCUCAACACAGCGUGGCAAAGUGGCUGUGGCUAGUCUGCC [G1C G7C A41U], the self-cleavage is 0.01.

Regarding CUCAAAGCUCAACACAGCGUGGCAAAGUGGCUCUUGCUAGACUGCC [G1C G2U G5A G33C G35U], the self-cleavage is 0.03.

Regarding CCCAGAGCCCAACACAGCGUGGCAAAGUCGCUGUGGCUAGACUGCC [G1C G2C U9C G29C], the self-cleavage was found to be 0.02.

On to CGCAUAGCCCAACACAGCGUGGGAAGAUGGCUGUGGCUUGACUGCC [G1C G5U U9C C23G A26G G27A A39U], for which the self-cleavage was 0.01.

As to CACAGAGCUCAACACAGCGUGGCAUAGUGGCUGUGGCUAGACUGCC [G1C G2A A25U], the self-cleavage is 0.26.

For the variant CACAGAGCUCAACAUAGCGGCGCAAAGUGGCUGUGGCUAGACUGCC [G1C G2A C15U U20G G21C], the self-cleavage came to 0.09.

For CGCAUAGCUCAACAAAGCGUGGCCAAGUGGCUGUUGUUAGACUGCC [G1C G5U C15A A24C G35U C37U], the self-cleavage amounted to 0.

As to CCCAGAGCGCAACACAGCGUGGCAAAGUGGCUGUGGCUAGACUGCC [G1C G2C U9G], the self-cleavage was found to be 0.04.

With CGCAGAUCUCAACUCAGCGUGGCAAAGUGGCUGCGGCUAGACUGCC [G1C G7U A14U U34C], the self-cleavage worked out at 0.04.

As to CGCAGAUCUCAACACUGCGUGGCAAAGCGGCUGUGGCAAGACUGCC [G1C G7U A16U U28C U38A], the self-cleavage came to 0.03.

As for CGCAGAGCUCAACACAGCGUGGCAAAGUGGGUGUGGCUCGACUGCC [G1C C31G A39C], the self-cleavage amounted to 0.01.

Take CACAGAGCUCAACACAGCGUGGCGAAGUGGCUGUGGCUAGACUGCC [G1C G2A A24G]: the self-cleavage is 0.11.

On to CGCAGAACUCUACACAGCGUGGCAAAGUGGCUGUGGCUAGACUGCC [G1C G7A A11U], for which the self-cleavage came to 0.01.

Regarding CACAGAGCUCAACACAGCGUUGCAAAGCGGCUGUACCUUGACGGCC [G1C G2A G21U U28C G35A G36C A39U U43G], the self-cleavage was 0.

Turning to CGCAUGGCUAAACACAGCGUGGCAAAGUGGCUGUGGCUAGACUGCA [G1C G5U A6G C10A C46A], the self-cleavage is 0.

As for CGCAGAGCUCAACACAGCGUGGCAAAGUGGAUGUGGCUAGACUGCG [G1C C31A C46G], the self-cleavage is 0.03.

For CGCAGAACUCUACACAGCGUGGCAAAGUUACCGUGGCUAGUCUGCC [G1C G7A A11U G29U G30A U32C A41U], the self-cleavage was found to be 0.01.

CGCAGAACUUAACACAGCGUGGCAUAGUGGCUGUGGCUGGACUGCC [G1C G7A C10U A25U A39G]: the self-cleavage was found to be 0.

CUCAGAGCUCAACACAGCGUGGCAUAGUGGCUGUGGCUACACUGCC [G1C G2U A25U G40C]: the self-cleavage stood at 0.06.

With CUCAAAGUUCAACACAGCGUGGCAAAGUAGCUGUGGCUAGACUGCC [G1C G2U G5A C8U G29A], the self-cleavage came to 0.05.

Take CUCAGAGCUCAACACAGAGUGGCAAAGUGGCUGUGGCUAGACUGCC [G1C G2U C18A]: the self-cleavage stood at 0.03.

With CGCAUACCUCAACACAGCGUGGCAUAGUGGCUGUGGCUAGACUGCC [G1C G5U G7C A25U], the self-cleavage amounted to 0.14.

Consider CGCAGAGCUCAACACAGCGUGGCAAAGUGGUGGUGGCUAGACUGCC [G1C C31U U32G], for which the self-cleavage was 0.02.

With CGCAGAACUCAACACUGCGUGGCAAAGUCGCCGUGGCUAGACUGCA [G1C G7A A16U G29C U32C C46A], the self-cleavage was 0.01.

Regarding CGCAAAGCUCACCACAGCGUGGCAAAGUUGCUGUGGCUAGACUGCC [G1C G5A A12C G29U], the self-cleavage is 0.01.

Regarding CGCAGACCUCAACACAGCGUGGUAAAGUGGCUGUGGCUAUACUGCC [G1C G7C C23U G40U], the self-cleavage is 0.

Turning to CGCAGAGCUCAACACAGCGUGGCAAAGUGGUUGUGGCUAGACCGCC [G1C C31U U43C], the self-cleavage is 0.

As to CACAGAGCUCAACACAGCGUGGUAAAGUGGCUGUGGCUAGACUGCC [G1C G2A C23U], the self-cleavage was 0.07.

As for CGCAGAGCUCAACACAGCGUGGCAAAGUGGAUGUGGCUAGACGGCC [G1C C31A U43G], the self-cleavage was 0.

Turning to CUCAGAGCGCAACACAGCGUGGCAAAGUGGCUGUGGCUAGACUGCC [G1C G2U U9G], the self-cleavage was determined as 0.04.

For CGCACAGCUCAACACAGCGUGGCCAAGUUUCUGUGGCUAGACUGCC [G1C G5C A24C G29U G30U], the self-cleavage came to 0.03.

CUCAUAGCUCAACACAGCGUGGCAAAGUGGCUGUGGCUAGACUGCC [G1C G2U G5U]: the self-cleavage was determined as 0.03.

Regarding CGCAGACCUCAGCACAGCCUGGCAAAGUGGCUGUGGCUAGACUGCC [G1C G7C A12G G19C], the self-cleavage turned out to be 0.

On to CACAUAGCUCAACACAGCGUGGCAUAGUGGCUGUGGAUAGACUGCC [G1C G2A G5U A25U C37A], for which the self-cleavage turned out to be 0.18.

For the variant CCCAGAGCUCAACACACCGUGGCAAACUGGCUGUGGCUAGACUGCC [G1C G2C G17C G27C], the self-cleavage is 0.09.

In the case of CUUAGAGCUCAACACAGCGUGGCAAAGUGGCCGUGGCUAGACUGCC [G1C G2U C3U U32C], the self-cleavage turned out to be 0.08.

For the variant CGCAUCGCUCAACACAGCGGGGCAAAGUGGCUGUGGCUAUACUGCC [G1C G5U A6C U20G G40U], the self-cleavage came to 0.02.

Turning to CGCAGAUAUCUACACAGCGUGGCAAAGUGGCUGUGGCUUGACUGCC [G1C G7U C8A A11U A39U], the self-cleavage was 0.01.

Turning to CGCAGACCUUAACACAGCGUGGUAAAGUGGCUGUGGCUAGACUGCU [G1C G7C C10U C23U C46U], the self-cleavage worked out at 0.01.

With CACAGAGCUAAACACAGCGUGGCAAAGUGGCUGAAACUAGACUGCC [G1C G2A C10A U34A G35A G36A], the self-cleavage was 0.

Regarding CGCAAAGCUCAACACAGCGUGGCAAAGUGGCCGUGGCUAGACUCCC [G1C G5A U32C G44C], the self-cleavage stood at 0.04.

Regarding CGCAGAGCUCAACACAGCGUGGCAAAGUGGUUGUGGUUAGACUGCC [G1C C31U C37U], the self-cleavage worked out at 0.05.

With CGCACAGCUCAACACAGCGUGCCAAAGUGGCUGUGGCUAGACUGCC [G1C G5C G22C], the self-cleavage was 0.01.

Regarding CGCACAGCUCAACACAGCGUGGCUAAGUGACUGUGGCUAGACUGCC [G1C G5C A24U G30A], the self-cleavage amounted to 0.07.

Regarding CCCAGAGCUCAACACAGCGUGGCAAAGUGGCUGGGGCUAGACUGCC [G1C G2C U34G], the self-cleavage came to 0.03.

For the variant CGCAAAGCUCAACACUGCGUGGCAAAGUGGCUGUGGCUAGACUGCC [G1C G5A A16U], the self-cleavage is 0.

Regarding CCCAGAGCUCAACACAGCGUGGCAAAGUGGCUGUGGCUAGACGGCC [G1C G2C U43G], the self-cleavage was determined as 0.04.

In the case of CGCAAAGCUCAUCGCAGCGUGGCAGAGUGGCGGUGGCUAGACUGCC [G1C G5A A12U A14G A25G U32G], the self-cleavage was 0.03.

In the case of CGCAGAUCUCAGCACAGCGUGGCAAUGUGGCUGUGGCUAGACUGCC [G1C G7U A12G A26U], the self-cleavage came out at 0.01.

On to CACAGAGCUCAACACAUCGUGGCAAAGUGGCUUCGGCUAGACUGCC [G1C G2A G17U G33U U34C], for which the self-cleavage was determined as 0.04.

As for CCCAGAGCUCACCACAGCGUGGCAAAGUGGCUGUGGCUAGACUGCC [G1C G2C A12C], the self-cleavage came out at 0.03.

CCCAGAGCUUAACACAGCGUGGCAAAGUGGCUGUGGCUAGACUGCC [G1C G2C C10U]: the self-cleavage was 0.04.

For CGCAUCGCUCAGCACAACGAGGCAAAGUGGCUCUGGCUAGGCUGCC [G1C G5U A6C A12G G17A U20A G33C A41G], the self-cleavage was 0.01.
